The supplement of paper PMC10369915
Some of the results follow. Cut-off read from the data, not from the text of the source: active = 3.2 or more and inactive = the rest. The signal is at background level for most entries.

Molecular target: SHP2 C-SH2 domain E139D
Assay: enrichment score (SH2-bound / input frequency) (ratio); bacterial display of known human phosphotyrosine sites (pTyr-Var adds point mutants) read by sequencing; higher = stronger binding; tyrosines were phosphorylated by kinases first
Conditions: peptide library: pTyr-Var
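Note: displayed peptides selected on beads carrying the immobilized SH2 domain, with library peptides lacking any tyrosine serving as negative controls.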

Enrichment score, inactive:
HLEKKYVRRDS [CSF1R_Y708] 0.61
LVKDGYQTAQP [CSF1R_Y873_M875T] 0.849
NHQFDYTFDWT [CSNK1A1_Y294_YF] 1.1
GLAKEYTDPET [CSNK1G2_Y195_I196T] 0.465
QTLTDYDIRFY [CSNK2A1_Y131] 0.724
LGRGKYSEVFE [CSNK2A1_Y50] 0.776
LGRGKSSEVFE [CSNK2A1_Y50_Y50S] 0.528
HESEIYGKVCF [CSRP3_Y57_C58G_YF] 0.902
DLGIQYKVLKP [CTNNA1_Y177_A179V] 0.875
ISKKIYDTIHD [CTNNA3_Y614] 0.977
WQQQSYLYSGI [CTNNB1_Y30_D32Y] 1.02
WQQQSYLFSGI [CTNNB1_Y30_D32Y_YF] 1.43
WQQQSYLDSEI [CTNNB1_Y30_G34E] 0.818
WQQQSYLDFGI [CTNNB1_Y30_S33F] 1.08
HYEDGYPGGSD [CTNND1_Y221] 0.615
NYADPYRQLPY [CTNND2_Y503_Q507P] 0.772
NFADPYRQLPF [CTNND2_Y503_Q507P_YF] 0.905
YRQLPYCPSVE [CTNND2_Y508_Q507P] 0.896

Molecular target: SHP2 C-SH2 domain wild-type
Assay: as above
Conditions: peptide library: pTyr-Var

Enrichment score, inactive:
HLEKKYVRRDS [CSF1R_Y708] 0.69
LVKDGYQTAQP [CSF1R_Y873_M875T] 0.993
NHQFDYTFDWT [CSNK1A1_Y294_YF] 1.16
GLAKEYTDPET [CSNK1G2_Y195_I196T] 0.615
QTLTDYDIRFY [CSNK2A1_Y131] 0.639
LGRGKYSEVFE [CSNK2A1_Y50] 0.532
LGRGKSSEVFE [CSNK2A1_Y50_Y50S] 0.904
HESEIYGKVCF [CSRP3_Y57_C58G_YF] 1.27
DLGIQYKVLKP [CTNNA1_Y177_A179V] 0.819
ISKKIYDTIHD [CTNNA3_Y614] 0.758
WQQQSYLYSGI [CTNNB1_Y30_D32Y] 1.01
WQQQSYLFSGI [CTNNB1_Y30_D32Y_YF] 1.55
WQQQSYLDSEI [CTNNB1_Y30_G34E] 0.678
WQQQSYLDFGI [CTNNB1_Y30_S33F] 1.03
HYEDGYPGGSD [CTNND1_Y221] 0.541
NYADPYRQLPY [CTNND2_Y503_Q507P] 0.825
NFADPYRQLPF [CTNND2_Y503_Q507P_YF] 0.795
YRQLPYCPSVE [CTNND2_Y508_Q507P] 0.795

Molecular target: SHP2 N-SH2 domain L43F
Assay: as above
Conditions: peptide library: pTyr-Var

Enrichment score, inactive:
HLEKKYVRRDS [CSF1R_Y708] 0.904
LVKDGYQTAQP [CSF1R_Y873_M875T] 0.533
NHQFDYTFDWT [CSNK1A1_Y294_YF] 1.12
GLAKEYTDPET [CSNK1G2_Y195_I196T] 0.342
QTLTDYDIRFY [CSNK2A1_Y131] 0.684
LGRGKYSEVFE [CSNK2A1_Y50] 0.779
LGRGKSSEVFE [CSNK2A1_Y50_Y50S] 0.397
HESEIYGKVCF [CSRP3_Y57_C58G_YF] 0.927
DLGIQYKVLKP [CTNNA1_Y177_A179V] 0.963
ISKKIYDTIHD [CTNNA3_Y614] 0.55
WQQQSYLYSGI [CTNNB1_Y30_D32Y] 0.887
WQQQSYLFSGI [CTNNB1_Y30_D32Y_YF] 1.75
WQQQSYLDSEI [CTNNB1_Y30_G34E] 0.769
WQQQSYLDFGI [CTNNB1_Y30_S33F] 1.12
HYEDGYPGGSD [CTNND1_Y221] 0.353
NYADPYRQLPY [CTNND2_Y503_Q507P] 0.659
NFADPYRQLPF [CTNND2_Y503_Q507P_YF] 0.644
YRQLPYCPSVE [CTNND2_Y508_Q507P] 0.882

Molecular target: SHP2 N-SH2 domain T42A
Assay: as above
Conditions: peptide library: pTyr-Var

Enrichment score, inactive:
HLEKKYVRRDS [CSF1R_Y708] 0.725
LVKDGYQTAQP [CSF1R_Y873_M875T] 0.468
NHQFDYTFDWT [CSNK1A1_Y294_YF] 0.982
GLAKEYTDPET [CSNK1G2_Y195_I196T] 0.574
QTLTDYDIRFY [CSNK2A1_Y131] 0.718
LGRGKYSEVFE [CSNK2A1_Y50] 0.841
LGRGKSSEVFE [CSNK2A1_Y50_Y50S] 0.932
HESEIYGKVCF [CSRP3_Y57_C58G_YF] 0.66
DLGIQYKVLKP [CTNNA1_Y177_A179V] 0.82
ISKKIYDTIHD [CTNNA3_Y614] 0.772
WQQQSYLYSGI [CTNNB1_Y30_D32Y] 1.06
WQQQSYLFSGI [CTNNB1_Y30_D32Y_YF] 1.57
WQQQSYLDSEI [CTNNB1_Y30_G34E] 0.733
WQQQSYLDFGI [CTNNB1_Y30_S33F] 1.26
HYEDGYPGGSD [CTNND1_Y221] 0.766
NYADPYRQLPY [CTNND2_Y503_Q507P] 0.589
NFADPYRQLPF [CTNND2_Y503_Q507P_YF] 0.622
YRQLPYCPSVE [CTNND2_Y508_Q507P] 0.883

Molecular target: SHP2 N-SH2 domain T52S
Assay: as above
Conditions: peptide library: pTyr-Var

Enrichment score, inactive:
HLEKKYVRRDS [CSF1R_Y708] 0.324
LVKDGYQTAQP [CSF1R_Y873_M875T] 0.593
NHQFDYTFDWT [CSNK1A1_Y294_YF] 1.01
GLAKEYTDPET [CSNK1G2_Y195_I196T] 0.494
QTLTDYDIRFY [CSNK2A1_Y131] 0.714
LGRGKYSEVFE [CSNK2A1_Y50] 0.838
LGRGKSSEVFE [CSNK2A1_Y50_Y50S] 0.841
HESEIYGKVCF [CSRP3_Y57_C58G_YF] 0.722
DLGIQYKVLKP [CTNNA1_Y177_A179V] 0.723
ISKKIYDTIHD [CTNNA3_Y614] 0.749
WQQQSYLYSGI [CTNNB1_Y30_D32Y] 1.07
WQQQSYLFSGI [CTNNB1_Y30_D32Y_YF] 1.41
WQQQSYLDSEI [CTNNB1_Y30_G34E] 0.821
WQQQSYLDFGI [CTNNB1_Y30_S33F] 1.2
HYEDGYPGGSD [CTNND1_Y221] 0.525
NYADPYRQLPY [CTNND2_Y503_Q507P] 0.68
NFADPYRQLPF [CTNND2_Y503_Q507P_YF] 0.787
YRQLPYCPSVE [CTNND2_Y508_Q507P] 0.965

Molecular target: SHP2 N-SH2 domain wild-type
Assay: as above
Conditions: peptide library: pTyr-Var

Enrichment score, inactive:
HLEKKYVRRDS [CSF1R_Y708] 0.558
LVKDGYQTAQP [CSF1R_Y873_M875T] 0.779
NHQFDYTFDWT [CSNK1A1_Y294_YF] 1.9
GLAKEYTDPET [CSNK1G2_Y195_I196T] 0.485
QTLTDYDIRFY [CSNK2A1_Y131] 0.726
LGRGKYSEVFE [CSNK2A1_Y50] 0.816
LGRGKSSEVFE [CSNK2A1_Y50_Y50S] 0.47
HESEIYGKVCF [CSRP3_Y57_C58G_YF] 1.34
DLGIQYKVLKP [CTNNA1_Y177_A179V] 1
ISKKIYDTIHD [CTNNA3_Y614] 0.733
WQQQSYLYSGI [CTNNB1_Y30_D32Y] 0.975
WQQQSYLFSGI [CTNNB1_Y30_D32Y_YF] 1.34
WQQQSYLDSEI [CTNNB1_Y30_G34E] 0.639
WQQQSYLDFGI [CTNNB1_Y30_S33F] 0.992
HYEDGYPGGSD [CTNND1_Y221] 0.565
NYADPYRQLPY [CTNND2_Y503_Q507P] 0.822
NFADPYRQLPF [CTNND2_Y503_Q507P_YF] 0.826
YRQLPYCPSVE [CTNND2_Y508_Q507P] 1
